For 6 compounds, GI50 and TGI results are on record in PubChem BioAssay (NCI).

Molecules are shown by their SMILES.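 Where inhibition never reached the appropriate level, the endpoint shown equals the highest concentration tested. Otherwise, values were interpolated linearly from a five-concentration, 48-hour dose response in 96-well plates. GI50 marks 50% less growth. TGI is the concentration that stops growth completely.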

In this assay the test system is NCI-H322M lung. Kind of assay: growth of human tumour cells (NCI), 48 h.

Regarding `Cc1cc(=O)oc2cc(OCCOc3ccc(/C=C/C(=O)Nc4ccccc4N)cc3)ccc12`, the GI50 is over 100 µM and the TGI is over 100 µM.
Consider `S=C(Nc1ccc(OCc2nc3ccc(Cl)cc3[nH]2)cc1)NC1CCCCC1`, for which the GI50 was 10.1 µM and the TGI is 21.7 µM.
For `O=C(CNc1nc(-c2ccccc2)cs1)Nc1ccccc1` the same measures were 1.62 µM and 3.21 µM.
On the same counts, the results for `O=C(NO)c1ccc(CNc2nc(-c3ccccc3)c3ccccc3n2)cc1` are 2.78 µM and over 19.7 µM.
On the same counts, the results for `CCc1ccccc1NC(=O)N/C(N)=N/c1nc2ccccc2s1` are 0.0925 µM and 38 µM.
`CCCCSc1nc(Nc2ccc(S(N)(=O)=O)cc2)c(C#N)c(-c2ccc(Cl)cc2)n1`: the GI50 is 11.2 µM and the TGI was found to be 39.1 µM.
